Whole data set: some 81,000 sequences, median “one-hybrid fitness for binding parS DNA” near -0.17, cut for the highest 2% near 0.51. The list shows a part of the results.
B1: Caulobacter ParB omega fusion; a variant is named by its letters at X, in order, B8GW30 (parent)
chain: MESVVVGEPGMSEGRRGLGRGLSALLGEVDAAPAQAPGEQLGGSREAPIEILQRNPDQPRRTFREEDLEDLSNSIREKGVLQPILVRPSPDTAGEYQIVAGERAWRAAQRAGLKTVPIMVRELDDLAVLEIGIIENVQRADLNVLEEALSYKVLMEKFERTQENIAQTIGKSXSHVANXMRLLXLPDEVQSYLVSGELTAXHARAIAAAADPVALAKQIIEGGLSVRETEALARKAPNLSAGKSKGGRPPRVKDTDTQALESDLSSVLGLDVSIDHRGSTGTLTITYATLEQLDDLCNRLTRGI

Variants of: B1
Experiment: one-hybrid fitness for binding parS DNA (scaled: cognate 1, non-cognate 0); higher = stronger binding
Conditions: with parS DNA site
Procedure, shortened: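 Bacterial one-hybrid selection in E. coli USO rpoZ- hisB- pyrF- with a HIS3 reporter carrying the site 19 bp from the promoter, screening Caulobacter ParB libraries with four specificity codons randomised (NNS). Cells grew 48 hours at 37°C on M9-minus-histidine plus 0.1 mM IPTG and 5 mM 3-AT. Plasmids before and after selection were Illumina-sequenced, three replicate libraries pooled, and variants under 10 reads dropped. Fitness is the log change in variant-to-wild-type read ratio, rescaled to cognate 1, non-cognate 0.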

Row | Variant | one-hybrid fitness for binding parS DNA
1 | PRPN | ≤ 0.2
2 | VMCN | ≤ 0.2
3 | SPPV | ≤ 0.2
4 | AYIL | ≤ 0.2
5 | PVAM | ≤ 0.2
6 | QCVS | ≤ 0.2
7 | RELM | ≤ 0.2
8 | RFSF | 0.26
9 | HRHW | ≤ 0.2
10 | FKYE | ≤ 0.2
11 | KVVS | ≤ 0.2
12 | DSVT | ≤ 0.2
13 | CVPC | ≤ 0.2
14 | VVIE | ≤ 0.2
15 | WGDG | ≤ 0.2
16 | QIPL | ≤ 0.2
17 | IMTM | ≤ 0.2
18 | RHKQ | ≤ 0.2
19 | DGCG | ≤ 0.2
20 | YRYS | 0.329
21 | FMNI | ≤ 0.2

Row | Variant | one-hybrid fitness for binding parS DNA
22 | QGMH | ≤ 0.2
23 | QCDY | ≤ 0.2
24 | FMTW | ≤ 0.2
25 | IANG | ≤ 0.2
26 | LHHD | ≤ 0.2
27 | CMAY | ≤ 0.2
28 | SIND | ≤ 0.2
29 | CYLV | ≤ 0.2
30 | PCSW | ≤ 0.2
31 | NNLV | ≤ 0.2
32 | AVRE | ≤ 0.2
33 | WRQG | ≤ 0.2
34 | TEMT | ≤ 0.2
35 | PPVD | ≤ 0.2
36 | AMPG | ≤ 0.2
37 | NPVC | ≤ 0.2
38 | KWPT | ≤ 0.2
39 | KLKG | ≤ 0.2
40 | EHTR | ≤ 0.2
41 | APKM | ≤ 0.2
42 | RRPQ | ≤ 0.2

Row | Variant | one-hybrid fitness for binding parS DNA
43 | VRRM | ≤ 0.2
44 | PDIC | ≤ 0.2
45 | ESCF | ≤ 0.2
46 | QSPF | ≤ 0.2
47 | AHRF | ≤ 0.2
48 | WLCF | ≤ 0.2
49 | CLCR | ≤ 0.2
50 | ALRV | ≤ 0.2
51 | QISC | ≤ 0.2
52 | ELCS | ≤ 0.2
53 | KNMG | ≤ 0.2
54 | QKQV | ≤ 0.2
55 | IVNS | ≤ 0.2
56 | DVSN | ≤ 0.2
57 | TASN | ≤ 0.2
58 | WLNG | ≤ 0.2
59 | RPCF | ≤ 0.2
60 | WGLG | ≤ 0.2
61 | PHKY | ≤ 0.2
62 | QWAG | ≤ 0.2
63 | ESST | ≤ 0.2

Row | Variant | one-hybrid fitness for binding parS DNA
64 | NSPP | ≤ 0.2
65 | TCQS | ≤ 0.2
66 | CYTY | ≤ 0.2
67 | NVMC | ≤ 0.2
68 | GQRG | ≤ 0.2
69 | VGNL | ≤ 0.2
70 | WLDE | ≤ 0.2
71 | PQKA | ≤ 0.2
72 | ASPV | ≤ 0.2
73 | LPWL | ≤ 0.2
74 | EAAL | ≤ 0.2
75 | ATHI | ≤ 0.2
76 | CDLG | ≤ 0.2
77 | SRFF | ≤ 0.2
78 | QWPF | ≤ 0.2
79 | LKTN | ≤ 0.2
80 | RCSW | 0.263
81 | GDPL | ≤ 0.2
82 | YVHG | ≤ 0.2
83 | RPGL | ≤ 0.2
84 | CGCC | ≤ 0.2

— a collection of fitness landscapes (doi:10.1016/j.celrep.2020.107928)
